{"source": "patent EP4810523A1", "about": "(Shenyang Sunshine Pharmaceutical Co., Ltd., dated 2025)", "key": {"[1]": {"target": "T1, C3-his protein (Complement component 3 Protein, Human, Recombinant (His Tag), Sino Biological Inc., Cat# … (human, UniProt P01024 23-1663))", "T1 construct": "Bought protein, coated on the ELISA plate; Natural C3 is processed into beta and alpha chains; also called human complement C3; complement C3; not shown: His tag", "T1 sequence (P01024 23-1663 limits assumed)": "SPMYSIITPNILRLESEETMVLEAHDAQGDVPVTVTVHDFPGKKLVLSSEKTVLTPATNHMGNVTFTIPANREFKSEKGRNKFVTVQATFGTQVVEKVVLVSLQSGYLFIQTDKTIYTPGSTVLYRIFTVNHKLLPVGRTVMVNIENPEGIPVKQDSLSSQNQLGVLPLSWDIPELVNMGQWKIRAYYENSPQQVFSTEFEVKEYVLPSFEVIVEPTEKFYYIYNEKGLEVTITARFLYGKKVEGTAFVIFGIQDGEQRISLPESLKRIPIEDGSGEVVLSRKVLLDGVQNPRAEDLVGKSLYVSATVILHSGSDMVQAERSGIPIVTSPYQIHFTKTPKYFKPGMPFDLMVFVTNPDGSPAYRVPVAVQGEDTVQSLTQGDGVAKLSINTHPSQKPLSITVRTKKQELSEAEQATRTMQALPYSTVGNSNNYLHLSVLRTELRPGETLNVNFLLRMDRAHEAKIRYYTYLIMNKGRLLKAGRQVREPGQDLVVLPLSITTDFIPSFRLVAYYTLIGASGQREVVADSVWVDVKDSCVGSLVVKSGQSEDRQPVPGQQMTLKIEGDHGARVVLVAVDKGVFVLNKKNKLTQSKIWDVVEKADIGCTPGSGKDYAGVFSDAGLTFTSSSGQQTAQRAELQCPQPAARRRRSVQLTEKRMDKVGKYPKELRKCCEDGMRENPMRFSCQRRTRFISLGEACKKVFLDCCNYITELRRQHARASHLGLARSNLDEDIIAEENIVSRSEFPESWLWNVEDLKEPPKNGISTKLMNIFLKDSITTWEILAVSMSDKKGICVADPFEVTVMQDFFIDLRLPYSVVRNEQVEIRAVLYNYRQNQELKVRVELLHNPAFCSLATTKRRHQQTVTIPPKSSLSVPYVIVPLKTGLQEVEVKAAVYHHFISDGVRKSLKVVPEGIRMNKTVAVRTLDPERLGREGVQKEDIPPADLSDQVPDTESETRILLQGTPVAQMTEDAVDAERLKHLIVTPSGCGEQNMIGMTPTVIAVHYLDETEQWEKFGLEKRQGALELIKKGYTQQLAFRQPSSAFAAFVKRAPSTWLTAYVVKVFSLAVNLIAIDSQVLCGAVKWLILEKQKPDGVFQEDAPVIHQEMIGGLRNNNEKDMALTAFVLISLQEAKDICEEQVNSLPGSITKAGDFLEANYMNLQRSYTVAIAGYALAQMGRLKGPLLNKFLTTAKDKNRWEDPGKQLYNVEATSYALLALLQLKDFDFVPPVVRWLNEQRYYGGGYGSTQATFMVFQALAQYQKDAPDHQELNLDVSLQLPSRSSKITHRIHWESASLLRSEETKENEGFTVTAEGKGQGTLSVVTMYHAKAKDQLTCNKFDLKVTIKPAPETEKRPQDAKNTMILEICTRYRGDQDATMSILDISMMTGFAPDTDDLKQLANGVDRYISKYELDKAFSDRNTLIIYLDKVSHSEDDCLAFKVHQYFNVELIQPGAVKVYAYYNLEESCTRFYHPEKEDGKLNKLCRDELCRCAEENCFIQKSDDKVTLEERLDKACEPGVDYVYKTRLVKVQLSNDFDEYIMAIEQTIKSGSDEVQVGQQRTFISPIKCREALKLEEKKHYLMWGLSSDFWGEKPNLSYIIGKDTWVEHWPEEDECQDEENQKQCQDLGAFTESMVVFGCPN", "assay": "ELISA, C3-his coated at 2 ug/mL, anti-human IgG Fc-HRP; mean of duplicates, SD 1.690"}, "[2]": {"target": "T1, C3-his protein (Complement component 3 …)", "assay": "ELISA, C3-his coated, anti-human IgG Fc-HRP; SD 0.031"}, "[3]": {"target": "T1, C3-his protein (Complement component 3 …)", "assay": "ELISA, C3-his coated at 1 ug/mL, anti-human IgG Fc-HRP; SD 0.018"}, "[4]": {"target": "T1, C3-his protein (Complement component 3 …)", "assay": "ELISA, C3-his coated at 2 ug/mL, anti-human IgG Fc-HRP; mean of duplicates, SD 0.001"}, "[5]": {"target": "T1, C3-his protein (Complement component 3 …)", "assay": "ELISA, C3-his coated at 2 ug/mL, biotinylated fusion protein, HRP-streptavidin; SD 0.014"}}}
{"binder": "CRIg-FCG4 (Fc fusion) not shown", "values": [{"measurement": "EC50", "setting": "[1]", "value": 24500, "unit": "pM"}]}
{"binder": "CRIg-FH-FCG[…]R-M86Y (Fc fusion) [skipping about 120 residues with changes]EDCNELPPRRNTEILTGSWSDQTYPEGTQAIYKCRPGYRSLGNVIMVCRKGEWVALNPLRKCQKRPCGHPGDTPFGTFTLTGGNVFEYGVKAVYTCNEGYQLLGEINYRECDTDGWTNDIPICEVVKCLPVTAPENGKIVSSAMEPDREYHFGQAVRFVCNSGYKIEGDEEMHCSDDGFWSKEKPKCVEISCKSPDVINGSPISQKIIYKENERFQYKCNMGYEYSERGDAVCTESGWRPLPSCEEKSCDNPYIPNGDYSPLRIKHRTGDEITYQCRNGFYPATRGNTAKCTSTGWIPAPRCTLKPPCPPCPAPEFLGGPSVFLFPPKPKDTLMISRTPEVTCVVVDVSQEDPEVQFNWYVDGVEVHNAKTKPREEQFNSTYRVVSVLTVLHQDWLNGKEYKCKVSNKGLPSSIEKTISKAKGQPREPQVYTLPPSQEEMTKNQVSLTCLVKGFYPSDIAVEWESNGQPENNYKTTPPVLDSDGSFFLYSRLTVDKSRWQEGNVFSCSVMHEALHNHYTQKSLSLSLGK", "values": [{"measurement": "EC50", "setting": "[2]", "value": 259, "unit": "pM"}]}
{"binder": "CRIg-L(GS)-FH-FCG[…]R-M86Y (Fc fusion) [skipping about 120 residues with changes]GGGGSGGGGSGGGGSEDCNELPPRRNTEILTGSWSDQTYPEGTQAIYKCRPGYRSLGNVIMVCRKGEWVALNPLRKCQKRPCGHPGDTPFGTFTLTGGNVFEYGVKAVYTCNEGYQLLGEINYRECDTDGWTNDIPICEVVKCLPVTAPENGKIVSSAMEPDREYHFGQAVRFVCNSGYKIEGDEEMHCSDDGFWSKEKPKCVEISCKSPDVINGSPISQKIIYKENERFQYKCNMGYEYSERGDAVCTESGWRPLPSCEEKSCDNPYIPNGDYSPLRIKHRTGDEITYQCRNGFYPATRGNTAKCTSTGWIPAPRCTLKPPCPPCPAPEFLGGPSVFLFPPKPKDTLMISRTPEVTCVVVDVSQEDPEVQFNWYVDGVEVHNAKTKPREEQFNSTYRVVSVLTVLHQDWLNGKEYKCKVSNKGLPSSIEKTISKAKGQPREPQVYTLPPSQEEMTKNQVSLTCLVKGFYPSDIAVEWESNGQPENNYKTTPPVLDSDGSFFLYSRLTVDKSRWQEGNVFSCSVMHEALHNHYTQKSLSLSLGK", "values": [{"measurement": "EC50", "setting": "[3]", "value": 270, "unit": "pM"}]}
{"binder": "CRIg-L-FH-FCG4 (Fc fusion) [skipping about 120 residues]SGGGGSGGGGSGGGGEDCNELPPRRNTEILTGSWSDQTYPEGTQAIYKCRPGYRSLGNVIMVCRKGEWVALNPLRKCQKRPCGHPGDTPFGTFTLTGGNVFEYGVKAVYTCNEGYQLLGEINYRECDTDGWTNDIPICEVVKCLPVTAPENGKIVSSAMEPDREYHFGQAVRFVCNSGYKIEGDEEMHCSDDGFWSKEKPKCVEISCKSPDVINGSPISQKIIYKENERFQYKCNMGYEYSERGDAVCTESGWRPLPSCEEKSCDNPYIPNGDYSPLRIKHRTGDEITYQCRNGFYPATRGNTAKCTSTGWIPAPRCTLKPPCPPCPAPEFLGGPSVFLFPPKPKDTLMISRTPEVTCVVVDVSQEDPEVQFNWYVDGVEVHNAKTKPREEQFNSTYRVVSVLTVLHQDWLNGKEYKCKVSNKGLPSSIEKTISKAKGQPREPQVYTLPPSQEEMTKNQVSLTCLVKGFYPSDIAVEWESNGQPENNYKTTPPVLDSDGSFFLYSRLTVDKSRWQEGNVFSCSVMHEALHNHYTQKSLSLSLGK", "values": [{"measurement": "EC50", "setting": "[4]", "value": 275, "unit": "pM"}]}
{"binder": "CRIg-L(GS)-FH-FCG4-YTE-M86Y (Fc fusion, unlabelled in the other assays; also called biotin-CRIg-L(GS)-FH-FCG4-YTE-M86Y) [skipping about 120 residues]GGGGSGGGGSGGGGSEDCNELPPRRNTEILTGSWSDQTYPEGTQAIYKCRPGYRSLGNVIMVCRKGEWVALNPLRKCQKRPCGHPGDTPFGTFTLTGGNVFEYGVKAVYTCNEGYQLLGEINYRECDTDGWTNDIPICEVVKCLPVTAPENGKIVSSAMEPDREYHFGQAVRFVCNSGYKIEGDEEMHCSDDGFWSKEKPKCVEISCKSPDVINGSPISQKIIYKENERFQYKCNMGYEYSERGDAVCTESGWRPLPSCEEKSCDNPYIPNGDYSPLRIKHRTGDEITYQCRNGFYPATRGNTAKCTSTGWIPAPRCTLKPPCPPCPAPEFLGGPSVFLFPPKPKDTLYITREPEVTCVVVDVSQEDPEVQFNWYVDGVEVHNAKTKPREEQFNSTYRVVSVLTVLHQDWLNGKEYKCKVSNKGLPSSIEKTISKAKGQPREPQVYTLPPSQEEMTKNQVSLTCLVKGFYPSDIAVEWESNGQPENNYKTTPPVLDSDGSFFLYSRLTVDKSRWQEGNVFSCSVMHEALHNHYTQKSLSLSLGK", "values": [{"measurement": "EC50", "setting": "[5]", "value": 93, "unit": "pM"}]}
